# Measured values published in PubChem BioAssay AID1476 (National Center for Advancing Translational Sciences (NCATS), 2009).
# Among all 200,000 compounds or so, about 4,500 (2.2%) were called active. Inconclusive results, whose numbers are uncertain, are shown with a selection of clear calls. The call rests on the fitted dose curve; in most records, active means well fitted inhibition curve with a large enough effect; inconclusive means small, poorly fitted or top-dose-only effect, or effect the other way; inactive means flat fitted curve, though single readings scatter. A potency beside an inconclusive call is a rough fit, not a confirmed value.
# Molecular target: Cruzipain (Trypanosoma cruzi) (UniProt P25779)
# Experiment: qHTS Assay for Promiscuous and Specific Inhibitors of Cruzain (without detergent); further: nearly all actives have a fitted effect of over 40% in size;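 on max response, negative = inhibition: plate controls were enzyme without inhibitor for no effect and buffer without enzyme for full effect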
# Conditions: purified cruzain, Z-FR-AMC fluorescence, no detergent
# In short: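 Detergent-free condition (0.00005% Triton X-100) in acetate buffer pH 5.5 with DTT. 1.5 nM enzyme and compound were pre-mixed 15 min, then 2 uM Z-FR-AMC substrate added; reaction progress from fluorescence change between first and third reads (60 s).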
# Potency means the concentration at half of the fitted maximal effect; tags describe the fitted curve by direction and shape.
# Sequence of UniProt P25779 (P25779 whole entry, looked up): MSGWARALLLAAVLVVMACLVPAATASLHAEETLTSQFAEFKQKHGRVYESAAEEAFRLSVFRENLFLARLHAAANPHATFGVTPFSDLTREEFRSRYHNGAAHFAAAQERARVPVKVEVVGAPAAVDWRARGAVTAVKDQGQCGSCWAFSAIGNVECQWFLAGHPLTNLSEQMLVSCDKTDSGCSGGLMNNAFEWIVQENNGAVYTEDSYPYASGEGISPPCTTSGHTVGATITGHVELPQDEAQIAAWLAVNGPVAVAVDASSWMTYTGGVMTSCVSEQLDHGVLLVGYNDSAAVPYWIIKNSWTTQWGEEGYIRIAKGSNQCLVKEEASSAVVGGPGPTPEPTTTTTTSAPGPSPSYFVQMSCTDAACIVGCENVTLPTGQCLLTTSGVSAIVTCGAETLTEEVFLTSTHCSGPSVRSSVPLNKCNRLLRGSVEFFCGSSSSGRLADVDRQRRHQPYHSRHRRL
Structure (SMILES),Potency,"max response, negative = inhibition"
COc1cc(/C=N/NC(N)=S)ccc1OCc1ccc(C)cc1,active: 1 µM,
COc1ccc(CNC(=O)c2ccc3c(c2)CCN3S(=O)(=O)c2ccccc2)cc1,,inactive: -6.34%
CC1CCN(C(=S)c2cn(Cc3cccc(F)c3)c3ccccc23)CC1,"inconclusive: 31.6 µM [inhibitor, single point]",
Cc1ccc(-c2nnc(/C=C/c3ccccc3)o2)cc1,,inactive: -11.1%
Cc1ccc2c(c1)cc(CN(Cc1ccc3c(c1)OCO3)S(=O)(=O)c1ccccc1)c1nnnn12,"inconclusive: 31.6 µM [inhibitor, single point]",
Cc1cccc(N2C(=O)N(Cc3ccc(C(C)(C)C)cc3)c3ccccc3S2(=O)=O)c1,"inconclusive: 15.8 µM [inhibitor, partial curve, poor fit]",
Cc1c(NC(=O)C(=O)/C=C(\O)c2ccc(Cl)cc2)c(=O)n(-c2ccccc2)n1C,"inconclusive: 25.1 µM [activator, single point]",
CC(=O)N(CCC1(C(C)C)CCOC(C)(C)C1)Cc1ccco1 (stereo not drawn),"inconclusive: 31.6 µM [activator, single point]",
O=C(NC(c1ccccc1)c1c(O)ccc2ccccc12)c1ccccc1Cl (stereo not drawn),"inconclusive: 31.6 µM [inhibitor, single point]",
Oc1ccc(Br)cc1C=Nc1ccc2[nH]ncc2c1,"inconclusive: 39.8 µM [inhibitor, single point]",
Cc1ccc(C(=O)O)cc1,,inactive: -10.4%
COc1ccc(OC)c(Nc2nc(-c3sc(N)nc3C)cs2)c1,active: 25.1 µM,
Cc1ccc2occ(CC(=O)Nc3c(C(=O)Nc4ccc(Cl)cc4)oc4ccccc34)c2c1,active: 10 µM,
O=C(Nc1nc(-c2ccc(S(=O)(=O)N3CCCCCC3)cc2)cs1)c1cccs1,active: 3.16 µM,
O=C(CC1N=C2c3ccccc3N=C(SCC(=O)Nc3ccccc3F)N2C1=O)NCc1ccc2c(c1)OCO2 (stereo not drawn),,inactive: -27.9%
CCCCCCCCCCCCC/C=C/[C@@H](O)[C@H](COP(=O)([O-])OCC[N+](C)(C)C)NC(=O)CCCCCCCCCCCCCCCCC,,inactive: 1.13%
Cc1ccc(-c2csc(NNC(=O)c3ccccc3)n2)cc1,"inconclusive: 31.6 µM [inhibitor, single point]",
COC(=O)c1ccc(NC(=O)C(=O)N2CCCC2)cc1,"inconclusive: 0.0631 µM [inhibitor, full curve, poor fit]",
c1ccc(CCN2CCOCC2)nc1,,inactive: 6.61%
CCn1c(SCc2nc3scc(-c4ccccc4)c3c(=O)[nH]2)nnc1-c1ccc(Cl)cc1,"inconclusive: 39.8 µM [inhibitor, single point]",
COc1ccc(-c2nc(-c3cccc(C)c3)nc(Cl)c2C#N)cc1,"inconclusive: 10 µM [inhibitor, partial curve, poor fit]",
O=C(Cn1c(=O)n(Cc2ccc(C(=O)NCc3ccc4c(c3)OCO4)cc2)c(=O)c2ccccc21)Nc1cccc(Cl)c1,active: 3.98 µM,

Structure (SMILES),Potency,"max response, negative = inhibition"
COc1cc2[nH]c(=O)n(Cc3ccc(C(=O)NCc4ccc(C)cc4)cc3)c(=O)c2cc1OC,"inconclusive: 3.98 µM [activator, full curve]",
COc1ccc2c3c(ccc2c1)N[C@H](C(=O)O)CC3,,inactive: 5.17%
O=C(O)CC/C(=C\c1ccc(Cl)c([N+](=O)[O-])c1)c1nc2ccccc2s1,"inconclusive: 39.8 µM [activator, single point]",
CCOc1ccc(CCNC(=O)c2cc(Nc3ccc(C)cc3C)nc3ccccc23)cc1OCC,"inconclusive: 1.58 µM [activator, partial curve, poor fit]",
CCC1CCCCN1S(=O)(=O)c1ccc(NC(=O)CSc2ncccc2C(=O)O)cc1 (stereo not drawn),"inconclusive: 39.8 µM [activator, single point]",
O=C(NCCc1ccc(Cl)cc1)c1ccc(CS(=O)(=O)Cc2ccc(Cl)cc2)o1,,inactive: -1.79%
CCc1nc2ccc(C(=O)NCCc3ccc(OC)cc3OC)cc2nc1CC,"inconclusive: 39.8 µM [activator, single point]",
CCC(C(=O)NCc1ccc2c(c1)CCN2C(=O)c1ccc(F)cc1)c1ccccc1 (stereo not drawn),,inactive: 10.9%
Cc1cccc(NC(=S)N(Cc2cccs2)Cc2cc3cc(C)ccc3[nH]c2=O)c1,"inconclusive: 15.8 µM [inhibitor, single point]",
CCOC(=O)c1[nH]c(C)c(C(=O)c2ccc(C)cc2)c1C,"inconclusive: 6.31 µM [inhibitor, single point]",
COCCn1c(N)c(C(=O)NCC2CCCO2)c2nc3ccccc3nc21 (stereo not drawn),"inconclusive: 31.6 µM [activator, partial curve]",
COc1ccc(C(=O)Nc2nnc(SCc3cc(=O)n4cc(Cl)ccc4n3)s2)cc1,,inactive: -3.78%
CCN(CC)CCN=Cc1c(O)n(CCc2ccccc2)c(=O)[nH]c1=O,,inactive: -8.5%
CCCC(C(=O)NCc1ccccc1)N(C(=O)Cn1nnc(-c2cccs2)n1)c1ccc2c(c1)OCCO2 (stereo not drawn),active: 20 µM,
CCOc1ccc(-c2c(C(=O)N/N=C/c3ccc(OC)cc3)nnn2-c2nonc2N)cc1,"inconclusive: 39.8 µM [inhibitor, single point]",
COC(=O)c1ccccc1NC(=O)Cn1c(=O)n(CCCCC(=O)NCc2ccc3c(c2)OCO3)c(=O)c2ccccc21,,inactive: -7.82%
O=C1CCCCC1C(Nc1ccc(Cl)cc1)c1ccccc1 (stereo not drawn),"inconclusive: 31.6 µM [activator, single point]",
Cc1cccc(OCC(=O)Nc2ccc(N3CCCC3)cc2)c1C,active: 3.16 µM,
CCOc1ccc(-c2nnn(CC(=O)N3CCN(c4ccc(OC)cc4)CC3)n2)cc1OCC,"inconclusive: 25.1 µM [activator, partial curve]",
CCOC(=O)c1cc(C)n(Cc2ccc(OCC)c(OC)c2)c1C,"inconclusive: 31.6 µM [activator, single point]",
O=C(c1cccc(C(F)(F)F)c1)N1CCC(O)(CS(=O)(=O)Cc2ccc(Cl)cc2)CC1,,inactive: 20.1%
